Data published in the supplement of paper PMC8728848.
Some of the results follow.

Key:
Experiment in all cases: glycan array binding signal (z-score within array); higher = stronger binding
Settings in all cases: glycan notation: IUPAC condensed, linker removed
[1] = target: GlcNAc(a1-6)Gal(b1-4)GlcNAc
Method in brief: (§1)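 Glycan array data came from 3228 arrays in the Consortium for Functional Glycomics database, and only arrays with an available protein sequence were kept. Glycan names were put into IUPAC-condensed notation, and columns mapping to the same glycan were averaged. The binding signal is a within-array Z-score, averaged across arrays of one protein sequence run at different concentrations or buffers and across linkers. A negative Z-score can be read as non-binding.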

[2] = target: GlcNAc(b1-2)Gal(b1-3)GalNAc
Method in brief: as §1

[3] = target: GlcNAc(b1-2)Man(a1-3)[GlcNAc(b1-2)Man(a1-6)]Man(b1-4)GlcNAc(b1-4)GlcNAc
Method in brief: as §1

[4] = target: GlcNAc(b1-2)Man(a1-3)[GlcNAc(b1-2)Man(a1-6)]Man(b1-4)GlcNAc(b1-4)[Fuc(a1-6)]GlcNAc
Method in brief: as §1

[5] = target: GlcNAc(b1-2)Man(a1-3)[GlcNAc(b1-4)][GlcNAc(b1-2)Man(a1-6)]Man(b1-4)GlcNAc(b1-4)GlcNAc
Method in brief: as §1

[6] = target: GlcNAc(b1-2)Man(a1-3)[GlcNAc(b1-4)][GlcNAc(b1-2)Man(a1-6)]Man(b1-4)GlcNAc(b1-4)[Fuc(a1-6)]GlcNAc
Method in brief: as §1

[7] = target: GlcNAc(b1-2)[GlcNAc(b1-4)]Man(a1-3)[GlcNAc(b1-2)Man(a1-6)]Man(b1-4)GlcNAc(b1-4)GlcNAc
Method in brief: as §1

[8] = target: GlcNAc(b1-2)[GlcNAc(b1-4)]Man(a1-3)[GlcNAc(b1-4)][GlcNAc(b1-2)Man(a1-6)]Man(b1-4)GlcNAc(b1-4)GlcNAc
Method in brief: as §1

[9] = target: GlcNAc(b1-2)[GlcNAc(b1-4)]Man(a1-3)[GlcNAc(b1-4)][GlcNAc(b1-2)[GlcNAc(b1-6)]Man(a1-6)]Man(b1-4)GlcNAc(b1-4)GlcNAc
Method in brief: as §1

[10] = target: GlcNAc(b1-2)[GlcNAc(b1-4)]Man(a1-3)[GlcNAc(b1-4)][GlcNAc(b1-2)[GlcNAc(b1-6)]Man(a1-6)]Man(b1-4)GlcNAc(b1-4)[Fuc(a1-6)]GlcNAc
Method in brief: as §1

[11] = target: GlcNAc(b1-2)[GlcNAc(b1-6)]Man(a1-6)[GlcNAc(b1-2)Man(a1-3)]Man(b1-4)GlcNAc(b1-4)GlcNAc
Method in brief: as §1

[12] = target: GlcNAc(b1-2)[GlcNAc(b1-6)]Man(a1-6)[GlcNAc(b1-2)Man(a1-3)]Man(b1-4)GlcNAc(b1-4)[Fuc(a1-6)]GlcNAc
Method in brief: as §1

[13] = target: GlcNAc(b1-2)[GlcNAc(b1-6)]Man(a1-6)[GlcNAc(b1-4)][GlcNAc(b1-2)Man(a1-3)]Man(b1-4)GlcNAc(b1-4)GlcNAc
Method in brief: as §1

GlcNAc(b1-3)Fuc = target: GlcNAc(b1-3)Fuc
Method in brief: as §1

GlcNAc(b1-3)Gal = target: GlcNAc(b1-3)Gal
Method in brief: as §1

[14] = target: GlcNAc(b1-3)Gal(b1-3)GalNAc
Method in brief: as §1

GlcNAc(b1-3)Gal(b1-4)Glc = target: GlcNAc(b1-3)Gal(b1-4)Glc
Method in brief: as §1

[15] = target: GlcNAc(b1-3)Gal(b1-4)GlcNAc
Method in brief: as §1

[16] = target: GlcNAc(b1-3)Gal(b1-4)GlcNAc(b1-2)Man(a1-3)[GlcNAc(b1-3)Gal(b1-4)GlcNAc(b1-2)Man(a1-6)]Man(b1-4)GlcNAc(b1-4)GlcNAc
Method in brief: as §1

[17] = target: GlcNAc(b1-3)Gal(b1-4)GlcNAc(b1-2)Man(a1-3)[GlcNAc(b1-3)Gal(b1-4)GlcNAc(b1-2)Man(a1-6)]Man(b1-4)GlcNAc(b1-4)[Fuc(a1-6)]GlcNAc
Method in brief: as §1

[18] = target: GlcNAc(b1-3)Gal(b1-4)GlcNAc(b1-2)[GlcNAc(b1-3)Gal(b1-4)GlcNAc(b1-6)]Man(a1-6)[GlcNAc(b1-3)Gal(b1-4)GlcNAc(b1-2)Man(a1-3)]Man(b1-4)GlcNAc(b1-4)GlcNAc
Method in brief: as §1

[19] = target: GlcNAc(b1-3)Gal(b1-4)GlcNAc(b1-3)Gal(b1-4)GlcNAc
Method in brief: as §1

[20] = target: GlcNAc(b1-3)Gal(b1-4)GlcNAc(b1-3)Gal(b1-4)GlcNAc(b1-2)Man(a1-3)[GlcNAc(b1-3)Gal(b1-4)GlcNAc(b1-3)Gal(b1-4)GlcNAc(b1-2)Man(a1-6)]Man(b1-4)GlcNAc(b1-4)GlcNAc
Method in brief: as §1

[21] = target: GlcNAc(b1-3)Gal(b1-4)GlcNAc(b1-3)Gal(b1-4)GlcNAc(b1-2)Man(a1-3)[GlcNAc(b1-3)Gal(b1-4)GlcNAc(b1-3)Gal(b1-4)GlcNAc(b1-2)Man(a1-6)]Man(b1-4)GlcNAc(b1-4)[Fuc(a1-6)]GlcNAc
Method in brief: as §1

[22] = target: GlcNAc(b1-3)Gal(b1-4)GlcNAc(b1-3)Gal(b1-4)GlcNAc(b1-2)[GlcNAc(b1-3)Gal(b1-4)GlcNAc(b1-3)Gal(b1-4)GlcNAc(b1-6)]Man(a1-6)[GlcNAc(b1-3)Gal(b1-4)GlcNAc(b1-3)Gal(b1-4)GlcNAc(b1-2)Man(a1-3)]Man(b1-4)GlcNAc(b1-4)[Fuc(a1-6)]GlcNAc
Method in brief: as §1

[23] = target: GlcNAc(b1-3)Gal(b1-4)GlcNAc(b1-3)Gal(b1-4)GlcNAc(b1-3)Gal(b1-4)GlcNAc(b1-2)Man(a1-3)[GlcNAc(b1-3)Gal(b1-4)GlcNAc(b1-3)Gal(b1-4)GlcNAc(b1-3)Gal(b1-4)GlcNAc(b1-2)Man(a1-6)]Man(b1-4)GlcNAc(b1-4)GlcNAc
Method in brief: as §1

[24] = target: GlcNAc(b1-3)Gal(b1-4)GlcNAc(b1-3)Gal(b1-4)GlcNAc(b1-3)Gal(b1-4)GlcNAc(b1-2)Man(a1-3)[GlcNAc(b1-3)Gal(b1-4)GlcNAc(b1-3)Gal(b1-4)GlcNAc(b1-3)Gal(b1-4)GlcNAc(b1-2)Man(a1-6)]Man(b1-4)GlcNAc(b1-4)[Fuc(a1-6)]GlcNAc
Method in brief: as §1

[25] = target: GlcNAc(b1-3)Gal(b1-4)GlcNAc(b1-3)Gal(b1-4)GlcNAc(b1-3)Gal(b1-4)GlcNAc(b1-2)[GlcNAc(b1-3)Gal(b1-4)GlcNAc(b1-3)Gal(b1-4)GlcNAc(b1-3)Gal(b1-4)GlcNAc(b1-6)]Man(a1-6)[GlcNAc(b1-3)Gal(b1-4)GlcNAc(b1-3)Gal(b1-4)GlcNAc(b1-3)Gal(b1-4)GlcNAc(b1-2)Man(a1-3)]Man(b1-4)GlcNAc(b1-4)[Fuc(a1-6)]GlcNAc
Method in brief: as §1

[26] = target: GlcNAc(b1-3)Gal(b1-4)GlcNAc(b1-3)Gal(b1-4)GlcNAc(b1-3)Gal(b1-4)GlcNAc(b1-3)Gal(b1-4)GlcNAc(b1-2)Man(a1-3)[GlcNAc(b1-3)Gal(b1-4)GlcNAc(b1-3)Gal(b1-4)GlcNAc(b1-3)Gal(b1-4)GlcNAc(b1-3)Gal(b1-4)GlcNAc(b1-2)Man(a1-6)]Man(b1-4)GlcNAc(b1-4)GlcNAc
Method in brief: as §1

[27] = target: GlcNAc(b1-3)Gal(b1-4)GlcNAc(b1-3)Gal(b1-4)GlcNAc(b1-3)Gal(b1-4)GlcNAc(b1-3)Gal(b1-4)GlcNAc(b1-2)Man(a1-3)[GlcNAc(b1-3)Gal(b1-4)GlcNAc(b1-3)Gal(b1-4)GlcNAc(b1-3)Gal(b1-4)GlcNAc(b1-3)Gal(b1-4)GlcNAc(b1-2)Man(a1-6)]Man(b1-4)GlcNAc(b1-4)[Fuc(a1-6)]GlcNAc
Method in brief: as §1

[28] = target: GlcNAc(b1-3)Gal(b1-4)GlcNAc(b1-3)Gal(b1-4)GlcNAc(b1-3)Gal(b1-4)GlcNAc(b1-3)Gal(b1-4)GlcNAc(b1-2)[GlcNAc(b1-3)Gal(b1-4)GlcNAc(b1-3)Gal(b1-4)GlcNAc(b1-3)Gal(b1-4)GlcNAc(b1-3)Gal(b1-4)GlcNAc(b1-6)]Man(a1-6)[GlcNAc(b1-3)Gal(b1-4)GlcNAc(b1-3)Gal(b1-4)GlcNAc(b1-3)Gal(b1-4)GlcNAc(b1-3)Gal(b1-4)GlcNAc(b1-2)Man(a1-3)]Man(b1-4)GlcNAc(b1-4)[Fuc(a1-6)]GlcNAc
Method in brief: as §1

[29] = target: GlcNAc(b1-3)Gal(b1-4)GlcNAc(b1-3)Gal(b1-4)GlcNAc(b1-3)GalNAc
Method in brief: as §1

[30] = target: GlcNAc(b1-3)Gal(b1-4)GlcNAc(b1-3)GalNAc
Method in brief: as §1

[31] = target: GlcNAc(b1-3)Gal(b1-4)GlcNAc(b1-3)[GlcNAc(b1-3)Gal(b1-4)GlcNAc(b1-3)]GalNAc
Method in brief: as §1

[32] = target: GlcNAc(b1-3)Gal(b1-4)GlcNAc(b1-6)[Gal(b1-3)]GalNAc
Method in brief: as §1

[33] = target: GlcNAc(b1-3)Gal(b1-4)GlcNAc(b1-6)[GlcNAc(b1-3)Gal(b1-3)]GalNAc
Method in brief: as §1

[34] = target: GlcNAc(b1-3)Gal(b1-4)GlcNAc(b1-6)[GlcNAc(b1-3)]Gal(b1-4)GlcNAc
Method in brief: as §1

GlcNAc(b1-3)GalNAc = target: GlcNAc(b1-3)GalNAc
Method in brief: as §1

GlcNAc(b1-3)Man = target: GlcNAc(b1-3)Man
Method in brief: as §1

[35] = target: GlcNAc(b1-3)[GlcNAc(b1-4)][GlcNAc(b1-6)]GlcNAc
Method in brief: as §1

[36] = target: GlcNAc(b1-3)[GlcNAc(b1-6)]Gal(b1-4)GlcNAc
Method in brief: as §1

[37] = target: GlcNAc(b1-3)[GlcNAc(b1-6)]GalNAc
Method in brief: as §1

[38] = target: GlcNAc(b1-4)Gal(b1-4)GlcNAc
Method in brief: as §1

GlcNAc(b1-4)GlcNAc = target: GlcNAc(b1-4)GlcNAc
Method in brief: as §1

[39] = target: GlcNAc(b1-4)GlcNAc(b1-4)GlcNAc
Method in brief: as §1

B1: MGL2 (Mus musculus), Q8JZN1 (protein)
chain: MTMRYENFQNLEREEKNQEMRNGDKKGGMESPKFALIPSQSFLWRILSWTHLLLFSLGLSLLLLVVISVIGSQNSQLRRDLGTLRAILDNTTSKIKAEFQSLDSRADNFEKGISSLKVDVEDHRQELQAGRDLSQKVTSLESTLEKREQALKTDLSDLTDHVQQLETDLKALTCQLANLKNNGSEVACCPLHWTEHEGSCYWFSESEKSWPEADKYCRLENSHLVVVNSLEEQNFLQNRLANVLSWMGLTDQNGPWRWVDGTDFDKGFKNWRPLQPDNWHGHMLGGGEDCAHFSYDGRWNDDVCQRHYHWICETELGKASSAHSPQLIASVP
[1]
  glycan array binding signal (z-score): -0.051
[2]
  glycan array binding signal (z-score): -0.302
[3]
  glycan array binding signal (z-score): -0.193
[4]
  glycan array binding signal (z-score): 0.12
[5]
  glycan array binding signal (z-score): -0.235
[6]
  glycan array binding signal (z-score): -0.149
[7]
  glycan array binding signal (z-score): -0.161
[8]
  glycan array binding signal (z-score): -0.084
[9]
  glycan array binding signal (z-score): -0.124
[10]
  glycan array binding signal (z-score): -0.257
[11]
  glycan array binding signal (z-score): -0.237
[12]
  glycan array binding signal (z-score): -0.101
[13]
  glycan array binding signal (z-score): -0.185
GlcNAc(b1-3)Fuc
  glycan array binding signal (z-score): -0.15
GlcNAc(b1-3)Gal
  glycan array binding signal (z-score): -0.118
[14]
  glycan array binding signal (z-score): -0.181
GlcNAc(b1-3)Gal(b1-4)Glc
  glycan array binding signal (z-score): -0.123
[15]
  glycan array binding signal (z-score): -0.048
[16]
  glycan array binding signal (z-score): -0.089
[17]
  glycan array binding signal (z-score): 0.007
[18]
  glycan array binding signal (z-score): -0.106
[19]
  glycan array binding signal (z-score): -0.096
[20]
  glycan array binding signal (z-score): 0.234
[21]
  glycan array binding signal (z-score): -0.043
[22]
  glycan array binding signal (z-score): -0.164
[23]
  glycan array binding signal (z-score): -0.168
[24]
  glycan array binding signal (z-score): 0.222
[25]
  glycan array binding signal (z-score): -0.137
[26]
  glycan array binding signal (z-score): 0.037
[27]
  glycan array binding signal (z-score): -0.044
[28]
  glycan array binding signal (z-score): -0.062
[29]
  glycan array binding signal (z-score): -0.263
[30]
  glycan array binding signal (z-score): -0.124
[31]
  glycan array binding signal (z-score): -0.191
[32]
  glycan array binding signal (z-score): -0.047
[33]
  glycan array binding signal (z-score): -0.188
[34]
  glycan array binding signal (z-score): -0.243
GlcNAc(b1-3)GalNAc
  glycan array binding signal (z-score): -0.095
GlcNAc(b1-3)Man
  glycan array binding signal (z-score): -0.304
[35]
  glycan array binding signal (z-score): -0.146
[36]
  glycan array binding signal (z-score): -0.295
[37]
  glycan array binding signal (z-score): -0.162
[38]
  glycan array binding signal (z-score): -0.231
GlcNAc(b1-4)GlcNAc
  glycan array binding signal (z-score): -0.174
[39]
  glycan array binding signal (z-score): -0.183
